Test results as given in the supplement of paper PMC11417369.
Some of the results follow.

System: PF3D7_0420300 AP2 domain 1 (GST-tagged)
Assay: gcPBM binding intensity (ln(normalized median fluorescence intensity)); higher = stronger DNA binding
Summary of the method: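 Binding intensity is defined as the maximum Masliner-normalised natural-log median intensity across replicate spots for either probe orientation. It was measured on an Agilent 4 × 180k array of primer-extended double-stranded 36-bp intergenic genomic probes and negative controls, to which GST-tagged P. falciparum DNA-binding domains made in E. coli were applied for 1 h in 1× PBS with 1% milk, 0.2 mg/ml BSA, 0.5% salmon testes DNA and 0.03% Triton X-100. Detection was by Alexa488 anti-GST antibody and scanning at 488 nm.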

Point of comparison: “CATATACATTGTATATGTACATATATATATATATAT [XGTACX_site3772]”, “gcPBM binding intensity (ln)” value 9.26. Against it:
- AAAACGCAGTTTAATATACACACCAAAAAAAAAAAA [CACACA_site3036] — higher, 9.32
- CACAAATATATACATACACACATATATACACATATA [CACACA_site8024] — higher, 9.86
- TTTGAGATGTGGTGTACACAAAATTAGGTACACATC [CACACA_site5773] — higher, 9.28
- TTTTATATTTATTTTTGTACATAAATGATCTCAAAT [XGTACX_site7768] — lower, 9.02
- TGTTTTTAAAAATATACACACACAGATATTATATAT [CACACA_site8162] — higher, 9.66
- ATATATATATATTTATGTACGCATTTATAGACGTAG [XGTACX_site6031] — lower, 9.1
- AAATATTATAATAATTGTACTATATATACAGTTATT [XGTACX_site1963] — higher, 9.3
- AAAAAAAAAAAATTATGTACATATTATATATAATGG [XGTACX_site2885] — lower, 9.2
- TAAAATATGTCATGGGTGCTTCTTTTTATACCTATG [GTGCAC_site9888] — higher, 9.35
- TATGATAACCATAATTGTACAGAATGAAACGTAAAT [XGTACX_site1653] — higher, 9.55
- ACTTAAATAATACATACACACATGTACTTACAGAAA [CACACA_site8458] — higher, 9.46
- AGAAAAAAAAAAAAAAATAAAAAAATAAATAAATAA [GTGCAC_negctrl_site161] — lower, 8.96
- TATGGGTTTATATAGGTGCAATATATGTATATATAA — the same, 9.26
- TATACCACCCGATATACACACTTGTAGACATCTTTT [CACACA_site4268] — higher, 9.48
- AGCAATATTTATTAAAGTACGTAAAAAAAATTCTCA [XGTACX_site6550] — lower, 9.03
- AACCATTGGGAAAGGGTGCACATATATATATATATA — lower, 9.25
- TATATAGTTTATATTTGTACATATAGACATTTATAA [XGTACX_site6414] — lower, 9.04
- ACAAAACTCTTTAATTGTACAAATATAATATAAAAA [XGTACX_site5690] — lower, 9.12
- CAAAGCATAGTATGATGTACAAATGTTCCTATAATA [XGTACX_site8642] — lower, 9.24
- ATATATATATAATATTGTACATAGTAGACATCACAC [XGTACX_site4649] — higher, 9.57
- TCTTATTATAAAAGGAGTACATCAATTAGATGTTCC [XGTACX_site8465] — lower, 8.9
- TAAAATATGGAAATCACACATTTATTAAAATATATA [CACACA_site4623] — lower, 9.13
- TATATATGTATAAGAGTGCATATGCATATATGTATA [GTGCAC_site9692] — higher, 9.33
- TTATGTTTATACACTACACACATTATTCATAAAAAA [CACACA_site4637] — higher, 9.38
- GATTATATATTAAAAAGTACTTTATAAATACTTCTA [XGTACX_site8992] — lower, 8.94
- TGATGCAAAATATATACACACATATATATATATATA [CACACA_site3052] — lower, 9.23
- AATAATATTAACACACGTACAAAAGCAAACAACCAA [XGTACX_site7410] — higher, 10.1
- ATACATTCTAATACGTGTACATATATATATATATAT [XGTACX_site1881] — higher, 9.36
- ATAAAACAAAAACACACACACATACACAAAAAAAAA [CACACA_site3848] — higher, 10.2
- TTTATATTATTATATCTTATTAATTATTTATCATTT [TGCATGCA_negctrl_site73] — lower, 9.24
- CATCTTAAATAAGAACGTACATTTTTTTTGATGAGA [XGTACX_site3462] — lower, 8.9
- AAGACAAAACAAAGAAGTACATATATATATATATAT [XGTACX_site4067] — lower, 9.07
- GGAGACTTTGTACAAACACACACATGAACACAATAT [CACACA_site8376] — higher, 9.8
- TAATTTAAAAATGAACATATATATGTATGTAAATAT [TGCATGCA_negctrl_site135] — higher, 9.31
- TCTTCACCACGTGGAAGTACATAAAAAGATACACAA [XGTACX_site4747] — lower, 9.23
- ATGTATATATTTATGTGTACTTAAATTTTTTTTTGT [XGTACX_site8179] — the same, 9.26
- TTTTAATATATAGAGTAACAAATTTGTCTATTAATA [CACACA_negctrl_site1495] — lower, 8.98
- CTTTTTCGCATGAAAAGTACATGAAATATATTACAT [XGTACX_site8971] — lower, 8.92
- ACATGCAACCATTCGGGTACAGAAATAAATATATAC [XGTACX_site4174] — higher, 9.3
- AATAACTTTTTAAACACACACACATATAAATAAATA [CACACA_site6196] — higher, 10
- GGTTATAACGCACATGCACACGTAAATAAATATTAT [CACACA_site9277] — higher, 9.4
- TAAATTTTAATAAATACACACAAATTTTAATTCTAT [CACACA_site6039] — lower, 9.22
- TTATAACATCTTAAATGTACAAATATGTGCTTATTT [XGTACX_site7285] — lower, 9.15
- ATATTAAAATACAGTGCATGTTAAAAATATATTATA [TGCATGCA_site977] — higher, 9.35
- TAAAAAAAAAACATCTGTACCAATTTTTATGTATAA [XGTACX_site5196] — lower, 8.92
- AATAAAAGTTCACCTGTACACACATATATATATGTA [CACACA_site8500] — higher, 9.62
- ATGTATTTATATACTTGTACGTAAGATGTATTATAT [XGTACX_site908] — higher, 9.27
- TTAATTCGTACATACACACGCACATATATATATATA [CACACA_site1469] — higher, 9.61
- AATAATAATAGAAACACACACACATCTTTAATAATA [CACACA_site4805] — higher, 10
- ATATTTTTTTTCTACACACATACAAATATATATTAT [CACACA_site2359] — higher, 9.66
- TAATATACTTAATACACACACGAATATTTATAAATA [CACACA_site6675] — higher, 9.73
- AAACTCAACTTATATACACACAATCTTTTTTTTTTA [CACACA_site29] — higher, 9.61
- CCCCTCGAAATAATTTGTACGAATATATTGTCTGTA [XGTACX_site8308] — higher, 9.64
- GATTCATCTAAACACCGTACATATTATATATATATA [XGTACX_site6030] — higher, 9.31
- AGTATATTAAAAAATACACACGTATTATATCTACAT [CACACA_site8844] — higher, 9.42
- GTTCATAAATTAAACACACACACACCGCTGGATACC [CACACA_site5779] — higher, 10.1
- TATTGTATATAATAAACACACAATATTAAAAATATA [CACACA_site1057] — higher, 9.4
- TATTTAAAAAACACATGTACGAGTATTATATATAAA [XGTACX_site6654] — higher, 9.28
- TTTTGTTGAAAAAAAAAAAAAAAATTAAATTAAATT [GTGCAC_negctrl_site636] — lower, 8.68
- CATAGACACGAACATACACACGGACATACATACGGA [CACACA_site8101] — higher, 9.8
- GTAACAAATTAATAGTGTACATATTTTAAAAAAATA [XGTACX_site7150] — lower, 9.14
- AATGCAAAGGTGAAAGAACACACAAAAAAAAAAAAA [CACACA_site9333] — higher, 9.34
- GTGTTAAATTTTTGAACATGCAAGTTTTATTATTGA [TGCATGCA_site478] — lower, 9.06
- GAAACATACATTTTTTGTCCGTAAGTATTATAATAA [XGTACX_site3273] — lower, 9.24
- ATACATCAAGGACACACACACACACCCACACCCACA [CACACA_site8013] — higher, 10.3
- CTATGAATAGGAAAAAGTACTAAACCTTTATATATA [XGTACX_site5022] — lower, 9.07
- ATTTTGCCTGACCCATGTACATATTATTTTTTGCAT [XGTACX_site2258] — higher, 9.93
- CACATAAAAATTGTGTTGCACTTTTATTCTTATATC — higher, 9.34
- AGTAGAATATCCCCTACACACCCAAATAATTTACAA [CACACA_site8339] — higher, 9.79
- TCAAATATTCATAAATGTACATTTATTTTTCTCCTT [XGTACX_site5827] — higher, 9.28
- TAACTTAATATTAATGCACACAATTTATATATATAT [CACACA_site3903] — higher, 9.38
- AACTTACTTGGACATACACACATATATATATATATA [CACACA_site2978] — higher, 9.62
- TTTATATATTTTAGGTGTACATAAATTTTTATATAT [XGTACX_site5597] — lower, 9.17
- AGAACAATTCTGTGGTGTACCAAAAAAAATTTAATT [XGTACX_site8082] — lower, 9.13
- TAAATGAATTTTACTATACACACGTATACATTTGTA [CACACA_site1210] — higher, 9.28
- ATATTTAAATTTTGCACACGCATATGAAATTAGGAC [CACACA_site1035] — higher, 9.47
- AAAATAAATAAATATACACACCATATTTATATTTTT [CACACA_site7361] — higher, 9.49
- TACTACACACATTCATGTACTTGATAAATTAATGAT [XGTACX_site6444] — higher, 9.44
- ATAACTAATATGAAATGTACCCATCAAAGTGTGCAT [XGTACX_site4463] — higher, 9.31
- TAATTTGTTATTTATTGTACAAACATTATATGTTAA [XGTACX_site6637] — lower, 9.12
- AAAATTAAAATACGTACACACCTTATCTTTTTGGCT [CACACA_site4311] — higher, 9.51
- ATATTATAAATATAATGTACGTTTTAATTTCATGTT [XGTACX_site3557] — lower, 9.22
- ATATATAATTATTGAAGTACTTGTTCATAAAATGGT [XGTACX_site5656] — lower, 9.25
- TATATGAGCATAAAGACACACAAATAAAACCAAACA [CACACA_site3856] — higher, 9.81
- AAAATAAAATGAAAACGTACATGATAAATTTTAATT [XGTACX_site4199] — higher, 9.49
- ACGTTAGGCTTATTTGCACACTTGTATTATAATTTT [CACACA_site1317] — higher, 9.58
- AAAAATATGAAAGTAACTAAGTTGTTATTGATAACA [CACACA_negctrl_site1608] — higher, 9.29
- ATATTATCACAAGGTGGTACACAAAAAAAAAAAAAA [XGTACX_site8224] — lower, 9.12
